Measurements reported in patent US12145987B2, “Method for depleting cytotoxic T cells using an anti-LAG-3 antibody composition” (Daiichi Sankyo Company, Limited, priority 2017, dated 2024).

What was measured:
[1] = test system: LAG-3 positive cells; assay: In vivo LAG-3 positive cell depletion after Con A administration; design: species or system human LAG-3/human FcγRIIIA double transgenic mice; settings: 30 mg/kg intraperitoneal immediately before Con A 15 mg/kg i.v.; blood 2 days after; vs antibody non-administration group
Method: Using the human LAG-3/human FcγRIIIA double transgenic mice of Example 10, it was investigated whether the obtained humanized anti-human LAG-3 antibody hLA212_H4/L2 has the activity of depleting LAG-3 positive cells in vivo. Immediately after the humanized anti-human LAG-3 antibody hLA212_H4/L2 (30 mg/kg) or a solvent was intraperitoneally administered to the human LAG-3/human FcγRIIIA double transgenic mice, Con A (manufactured by Sigma-Aldrich) having polyclonal T cell activating action was intravenously administered at a dose of 15 mg/kg. Red blood cells were hemolyzed from the blood collected 2 days thereafter with PharmLyse (manufactured by Becton, Dickinson and Company) to obtain white blood cells, and the white blood cells were used for flow cytometry. […] The data was analyzed using FlowJo (manufactured by Tree Star Inc). After removal of the LIVE/DEAD Fixable Dead Cell Stain Kit-near-IR fluorescent reactive dye-positive dead cells by gating, the living cells were analyzed.

[2] = test system: granzyme positive CD8 T cells; assay: Granzyme positive CD8 T cell number after CD3/CD28 stimulation of human PBMCs; assay type: cell-based; settings: data not shown
Method: (§1) PBMCs were separated from human peripheral blood by Ficoll centrifugation and added to a 96-well U-bottom microplate in an amount of 4×10^5 cells/well. Human IL-2 (PeproTech, Inc., final concentration: 100 ng/mL) and Dynabeads Human T-Activator CD3/CD28 (Life Technologies Corp., 4×105 beads/well) were added thereto, and T cells were activated by culture for 4 days. The obtained cells were recovered, suspended in a FACS buffer (PBS, 0.1% BSA, and 0.1% sodium azide), and then reacted with Human BD Fc Block (Becton, Dickinson and Company) at room temperature for 10 minutes. Subsequently, the cell surface was stained by reaction at 4° C. for 30 minutes with fluorescently labeled antibodies diluted with a FACS buffer containing a LIVE/DEAD Fixable Dead Cell Stain Kit-near-IR fluorescent reactive dye (manufactured by Invitrogen Corp.), followed by washing with a FACS buffer. […] The data was analyzed using FlowJo (manufactured by Tree Star Inc). After removal of the LIVE/DEAD Fixable Dead Cell Stain Kit-near-IR fluorescent reactive dye-positive dead cells by gating, only the living cells were analyzed by further gating CD3 positive and CD8 positive CD8 T cells. […]

[3] = test system: LAG-3 of rodents; assay: Cross-reactivity with rodent LAG-3; assay type: binding
[4] = test system: T cells (total number); assay: Total T cell number after CD3/CD28 stimulation of human PBMCs for 4 days, flow cytometry; assay type: cell-based; settings: hLA212_H4/L2 10 μg/mL, tacrolimus 10 nM, dexamethasone 1 μM, PBMCs of two donors
Method: as §1

[5] = test system: T cell suppression function of LAG-3; assay: Influence on T cell suppression function of LAG-3: IL-2 production of SEB-stimulated human PBMCs; assay type: cell-based; settings: SEB 1 ng/mL, 4 days, antibody 10 μg/mL

B1: hLA212_H4/L2: defucosylated humanized antibody; heavy chain positions 20 to 470 of SEQ ID No: 30, light chain positions 21 to 234 of SEQ ID No: 34 (antibody)
heavy: EVQLVESGGGLVQPGGSLRLSCAASGFTYRSYVMAWVRQAPGKGLEWVASISTGGGNTYYRDSVKGRFTISRDNAKNTLYLQMDSLRAEDTAVYYCAEDMSNSGYGLFDYWGQGTLVTVSSASTKGPSVFPLAPSSKSTSGGTAALGCLVKDYFPEPVTVSWNSGALTSGVHTFPAVLQSSGLYSLSSVVTVPSSSLGTQTYICNVNHKPSNTKVDKRV[left out - human IgG1 Fc]
light: DIQMTQSPSSLSASVGDRVTITCKAGQNVDNNIAWYQQKPGQSPKLLIYYASNRNTGVPSRFSGSGYGTDFTLTISSLQPEDFATYYCQRISNSPYTFGQGTKVEIKRTVAAPSVFIFPPSDEQLKSGTASVVCLLNNFYPREAKVQWKVDNALQSGNSQESVTEQDSKDSTYSLSSTLTLSKADYEKHKVYACEVTHQGLSSPVTKSFNRGEC
human LAG-3 positivity in peripheral blood T cells [1]: decreased in a remarkable manner
number of granzyme positive CD8 T cells [2]: reduced
cross-reaction with LAG-3 of rodents [3]: does not cross-react
total number of T cells after culture, compared with the control [4]: slightly reduced

B2: hLA212_H3/L2: humanized antibody; heavy chain positions 20 to 470 of SEQ ID No: 30, light chain positions 21 to 234 of SEQ ID No: 34 (antibody)
heavy: EVQLVESGGGLVQPGGSLRLSCAASGFTYRSYVMAWVRQAPGKGLEWVASISTGGGNTYYRDSVKGRFTISRDNAKNTLYLQMDSLRAEDTAVYYCAEDMSNSGYGLFDYWGQGTLVTVSSASTKGPSVFPLAPSSKSTSGGTAALGCLVKDYFPEPVTVSWNSGALTSGVHTFPAVLQSSGLYSLSSVVTVPSSSLGTQTYICNVNHKPSNTKVDKRV[left out - human IgG1 Fc]
light: DIQMTQSPSSLSASVGDRVTITCKAGQNVDNNIAWYQQKPGQSPKLLIYYASNRNTGVPSRFSGSGYGTDFTLTISSLQPEDFATYYCQRISNSPYTFGQGTKVEIKRTVAAPSVFIFPPSDEQLKSGTASVVCLLNNFYPREAKVQWKVDNALQSGNSQESVTEQDSKDSTYSLSSTLTLSKADYEKHKVYACEVTHQGLSSPVTKSFNRGEC
influence on IL-2 production in culture supernatant [5]: almost no influence on IL-2 production
